Experimental data taken from PubChem BioAssay AID504333 (National Center for Advancing Translational Sciences (NCATS), 2011).
Out of some 360,000 compounds screened, about 16,000 (4.4%) were called active. The shares of active, inactive and inconclusive entries below differ from those in the screen. The call rests on the fitted dose curve; in most records, active means well fitted inhibition curve with a large enough effect; inconclusive means small, poorly fitted or top-dose-only effect; inactive means no such curve, though single readings can be large or run the other way. Where the call is inconclusive, the potency comes from a doubtful curve fit.

Target: Bromodomain adjacent to zinc finger domain protein 2B (Homo sapiens) (UniProt Q9UIF8)
Test: qHTS Assay for Inhibitors of BAZ2B; further: nearly all actives have a fitted effect of over 60% in size
Settings: AlphaScreen BAZ2B-H3K14Ac peptide displacement; activity change, negative = inhibition: at 114 µM (top of the series)
Procedure, shortened: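 BAZ2B (50 nM) with biotin-H3(5-23)K14Ac peptide (50 nM) in PBS pH 7.4, 0.01% Tween-20, preformed 30 min, then compound 30 min at room temperature; top concentration 110uM. AlphaScreen streptavidin donor/nickel chelate acceptor beads (10 ug/mL final), 20 min dark, signal read.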
On the % scale 0 is the no-effect control and ±100 the full control effect; potency means the concentration at half of the fitted maximal effect; tags describe the fitted curve by direction and shape.

Chain of UniProt Q9UIF8 (Q9UIF8 whole entry, looked up, the tested form may be a part): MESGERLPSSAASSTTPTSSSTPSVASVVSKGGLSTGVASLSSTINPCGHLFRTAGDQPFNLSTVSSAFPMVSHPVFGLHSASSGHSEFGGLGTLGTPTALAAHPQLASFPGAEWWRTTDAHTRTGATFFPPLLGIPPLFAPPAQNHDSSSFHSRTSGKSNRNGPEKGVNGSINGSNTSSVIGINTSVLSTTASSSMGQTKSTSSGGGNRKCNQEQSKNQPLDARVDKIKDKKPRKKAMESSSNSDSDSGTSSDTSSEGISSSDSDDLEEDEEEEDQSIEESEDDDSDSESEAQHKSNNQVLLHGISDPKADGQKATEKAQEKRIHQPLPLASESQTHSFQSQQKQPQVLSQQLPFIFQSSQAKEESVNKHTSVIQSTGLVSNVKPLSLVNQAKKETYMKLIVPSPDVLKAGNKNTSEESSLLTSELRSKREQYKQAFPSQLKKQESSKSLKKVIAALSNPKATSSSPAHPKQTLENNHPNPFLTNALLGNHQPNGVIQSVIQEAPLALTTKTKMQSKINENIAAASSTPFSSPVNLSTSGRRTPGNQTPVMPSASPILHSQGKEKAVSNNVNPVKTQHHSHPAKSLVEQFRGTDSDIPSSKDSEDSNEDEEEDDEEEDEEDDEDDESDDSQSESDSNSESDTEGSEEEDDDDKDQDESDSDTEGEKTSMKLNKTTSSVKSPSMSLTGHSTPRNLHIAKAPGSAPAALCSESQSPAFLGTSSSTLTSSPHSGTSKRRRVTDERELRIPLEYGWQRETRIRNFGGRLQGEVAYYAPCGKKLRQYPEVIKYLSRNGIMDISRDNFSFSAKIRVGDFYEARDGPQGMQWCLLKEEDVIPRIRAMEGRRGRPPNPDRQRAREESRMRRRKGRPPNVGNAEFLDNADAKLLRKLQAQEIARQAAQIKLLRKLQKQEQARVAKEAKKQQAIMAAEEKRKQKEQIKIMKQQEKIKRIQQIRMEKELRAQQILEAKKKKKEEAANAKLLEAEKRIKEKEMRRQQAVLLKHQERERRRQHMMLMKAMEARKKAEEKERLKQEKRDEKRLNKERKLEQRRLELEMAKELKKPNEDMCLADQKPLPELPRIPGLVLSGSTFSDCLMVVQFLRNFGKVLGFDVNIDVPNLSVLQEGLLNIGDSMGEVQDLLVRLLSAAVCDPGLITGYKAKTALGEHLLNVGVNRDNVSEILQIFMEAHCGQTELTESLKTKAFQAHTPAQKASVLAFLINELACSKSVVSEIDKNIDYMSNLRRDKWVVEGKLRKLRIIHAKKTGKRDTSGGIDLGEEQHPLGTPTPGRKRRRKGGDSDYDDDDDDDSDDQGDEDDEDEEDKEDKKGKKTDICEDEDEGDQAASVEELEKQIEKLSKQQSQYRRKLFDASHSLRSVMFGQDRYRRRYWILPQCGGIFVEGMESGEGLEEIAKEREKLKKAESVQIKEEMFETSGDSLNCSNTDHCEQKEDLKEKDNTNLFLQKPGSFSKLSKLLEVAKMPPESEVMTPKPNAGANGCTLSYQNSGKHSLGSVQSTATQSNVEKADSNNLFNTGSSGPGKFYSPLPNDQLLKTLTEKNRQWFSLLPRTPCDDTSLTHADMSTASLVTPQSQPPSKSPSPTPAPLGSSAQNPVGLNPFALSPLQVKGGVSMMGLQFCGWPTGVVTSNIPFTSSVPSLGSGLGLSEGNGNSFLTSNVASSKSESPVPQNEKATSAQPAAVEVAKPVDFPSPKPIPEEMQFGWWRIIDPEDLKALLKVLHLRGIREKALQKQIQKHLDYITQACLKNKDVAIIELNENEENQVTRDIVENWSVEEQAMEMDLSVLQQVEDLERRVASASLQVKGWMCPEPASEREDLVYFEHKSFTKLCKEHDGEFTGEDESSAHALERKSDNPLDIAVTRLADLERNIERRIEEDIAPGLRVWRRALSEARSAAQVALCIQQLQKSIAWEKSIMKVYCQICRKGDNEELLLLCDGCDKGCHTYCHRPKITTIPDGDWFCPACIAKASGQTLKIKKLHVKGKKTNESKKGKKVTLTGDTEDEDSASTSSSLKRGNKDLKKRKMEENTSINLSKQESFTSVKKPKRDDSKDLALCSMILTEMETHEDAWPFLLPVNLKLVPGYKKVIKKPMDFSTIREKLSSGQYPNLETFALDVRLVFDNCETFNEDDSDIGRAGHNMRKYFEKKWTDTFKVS

Structure (SMILES) | Potency | activity change, negative = inhibition
COc1ccc(NS(=O)(=O)c2cccc3nonc23)c(OC)c1 | inconclusive: 56.2 µM [inhibitor, partial curve] | –
O=[N+]([O-])c1ccc(O)c(/C=N/Nc2nn[nH]n2)c1 | active: 6.31 µM | –
Cc1ccc(NC(=S)Nc2cccc(-c3n[nH]c(=S)o3)c2)cc1 | inconclusive: 50.1 µM [inhibitor, partial curve] | –
O=C(NCc1ccco1)c1ccc(Cn2cc([N+](=O)[O-])cn2)o1 | – | inactive: -3.92%
Cc1nc(Cl)c(C(=O)NCCc2ccccc2)c(C)c1[N+](=O)[O-] | – | inactive: 7.64%
c1ccc(CN2CCN(c3nc(-c4ccccn4)nc4ccccc34)CC2)cc1 | inconclusive: 50.1 µM [inhibitor, partial curve] | –
CN(C)c1ccc(NS(=O)(=O)c2cccc(Cl)c2)cc1 | active: 44.7 µM | –
CN1CCC(N(C)C(=S)NC(=O)c2cc(-c3cccc(Br)c3)nc3ccccc23)CC1 | inconclusive: 50.1 µM [inhibitor, partial curve] | –
Cc1ccc(C(=O)NCCc2nnc3ccc(NCc4ccc5c(c4)OCO5)nn23)cc1 | inconclusive: 3.98 µM [inhibitor, partial curve, poor fit] | –
Cn1ncc(Cl)c1C(=O)N/N=C/c1cccc(OC2CSC2)c1 | active: 79.4 µM | –
O=C(CCO)c1ccc(O)cc1 | active: 12.6 µM | –
CCN(CC)S(=O)(=O)c1ccc(C)c(NC(=S)NC2CCCCC2)c1 | – | inactive: -20.1%
CCc1ccc(C(=O)Nc2ccc3nn(-c4ccc(C)c(Cl)c4)nc3c2)cc1 | – | inactive: -11%
Cc1cccc(C)c1NC(=O)Cn1nc(C)c2sc3ccccc3c2c1=O | inconclusive: 79.4 µM [inhibitor, single point] | –
Cc1ccc(-c2nc3s/c(=C\c4ccco4)c(=O)n3n2)cc1 | active: 50.1 µM | –
CCN1C(=O)/C(=C2/Sc3ccccc3N2CC)S/C1=N\c1ncn[nH]1 | inconclusive: 56.2 µM [inhibitor, partial curve] | –
Cc1cccc(-n2c(O)c(C=Nc3ccc(O)cc3)c3ccccc3c2=O)n1 | inconclusive: 70.8 µM [inhibitor, single point] | –
COc1cc(/C=C2\SC(=S)NC2=O)ccc1OS(=O)(=O)c1ccccc1 | active: 44.7 µM | –
COc1ccc(CCNCC(=O)Nc2ccc(C)c(S(=O)(=O)N(C)C)c2)cc1OC | active: 22.4 µM | –
CCC(C(=O)NCCc1ccc(C)cc1)n1nc(C)c2c(C)n(-c3ccccc3)nc2c1=O (stereo unspecified) | inconclusive: 100 µM [inhibitor, single point] | –
CCN(CCCNC(=O)Cn1cc2c(n1)CCCC2)c1cccc(C)c1 | inconclusive: 89.1 µM [inhibitor, single point] | –
CCn1c(=O)n(CC)c2cc(N3CCCC3)c(NC(=O)c3cccc(OC)c3)cc21 | inconclusive: 31.6 µM [inhibitor, partial curve] | –
COc1cc(-c2nnc(SCCOc3ccc(C)c(Cl)c3)o2)cc(OC)c1OC | inconclusive: 89.1 µM [inhibitor, single point] | –
CCOC(=O)CSc1nc2ccc(NC(=O)c3ccccc3)cc2s1 | – | inactive: -2.55%
CCOC(=O)Cn1c(=O)oc2cc(S(=O)(=O)Nc3ccc(N(CC)CC)cc3C)ccc21 | inconclusive: 39.8 µM [inhibitor, full curve] | –
CCCCN(CCCC)CCNC(=O)CSCc1ccc(C)cc1 | active: 50.1 µM | –

Structure (SMILES) | Potency | activity change, negative = inhibition
O=C(N1CCC(n2nc(-c3ccccc3)oc2=O)CC1)C1(c2ccc(Cl)cc2)CC1 | – | inactive: -20.7% [at 57.1 µM]
CCCn1c(C)cc(C(=O)COC(=O)c2c(C)nn(-c3ccccc3)c2C)c1C | inconclusive: 70.8 µM [inhibitor, single point] | –
Cc1cc(C)c2cc(CN(Cc3ccco3)C(=O)NCc3ccccc3)c(=O)[nH]c2c1 | inconclusive: 56.2 µM [inhibitor, partial curve] | –
O=C(O)CSc1nnc(-c2cccs2)n1-c1ccc(Cl)cc1 | – | inactive: -18.4%
Cc1ccc(-c2[nH]nc3c2C(c2ccoc2)C(C#N)=C(N)O3)cc1C (stereo unspecified) | inconclusive: 89.1 µM [inhibitor, single point] | –
COc1ccc(-n2c(Cc3cccn3C)nnc2SCC(=O)Nc2ccc(Cl)cc2)cc1 | inconclusive: 39.8 µM [inhibitor, partial curve] | –
CCOC(=O)c1c(NC(=O)c2ccc(C)cc2)sc2c1CC(C)(C)NC2(C)C | – | inactive: -1.6%
CCCc1nc2ccccc2c(C(=O)N(CC)CC(=O)NCc2cccs2)c1CC | – | inactive: 8.22%
COc1cc2cc(CN(CCCO)S(=O)(=O)c3ccccc3Cl)c(=O)[nH]c2cc1OC | inconclusive: 89.1 µM [inhibitor, single point] | –
O=c1cc(-c2ccccc2)nc2nc(SCc3ccccc3)[nH]n12 | active: 79.4 µM | –
CCCS(=O)(=O)Nc1cc2c(cc1NCc1ccccc1)n(C)c(=O)n2C | active: 50.1 µM | –
CCOc1ccc(NC(C)C(=O)N/N=C/c2cccs2)cc1 (stereo unspecified) | inconclusive: 50.1 µM [inhibitor, partial curve] | –
CCN(Cc1ccccc1)C(=O)CN1C(=O)COc2ccc(S(=O)(=O)N3CCCCCC3)cc21 | inconclusive: 70.8 µM [inhibitor, single point] | –
Cc1cccc(-n2[nH]c(C)c(C=Nc3ccc4[nH]c(=O)[nH]c4c3)c2=O)c1 | – | inactive: -25.5%
Cc1cccc(NC(=S)N=Nc2c(O)n(C)c3ccc(S(=O)(=O)N4CCOCC4)cc23)c1 | inconclusive: 8.91 µM [inhibitor, full curve, poor fit] | –
Cc1ccc(S(=O)(=O)N/N=C2/CC(c3ccccc3)Oc3ccccc32)cc1[N+](=O)[O-] (stereo unspecified) | inconclusive: 44.7 µM [inhibitor, partial curve] | –
Cc1cc(C(=O)COc2nncc3ccccc23)c(C)n1C | – | inactive: -7.9%
CCC(=O)Nc1nnc(S(=O)(=O)N2CCc3ccccc32)s1 | inconclusive: 79.4 µM [inhibitor, single point] | –
O=C1[C@@H]2[C@H](Cc3ccc(O)cc3)N[C@]3(C(=O)Nc4ccccc43)[C@@H]2C(=O)N1c1ccc(F)cc1 | – | inactive: 1.93%
O=c1ccc(C(F)(F)F)cn1Cc1cc(=O)n2cc(Br)ccc2n1 | active: 79.4 µM | –
CSc1ccc(C2Nc3ccccc3-c3cc(C)nn32)cc1 (stereo unspecified) | – | inactive: 1.26%
COc1ccc(CN(CC(=O)NC2CCCC2)C(=O)c2ccc(-c3ccccc3)[nH]2)cc1 | active: 28.2 µM | –
Cc1ccc(C(=O)Oc2cc(C)[nH]c(=O)c2[N+](=O)[O-])cc1 | – | inactive: -31%
COc1cccc(OC)c1OCCCNC1CCCC1 | inconclusive: 89.1 µM [inhibitor, single point] | –
COc1cccc(CNC(=O)c2cc(S(=O)(=O)N3CCCC3)cn2C)c1 | inconclusive: 79.4 µM [inhibitor, single point] | –
O=C(Cc1ccc(Cl)cc1)NCC(=O)N1CCCCC1 | inconclusive: 89.1 µM [inhibitor, single point] | –

Structure (SMILES) | Potency | activity change, negative = inhibition
COc1ccc(CCN(C)S(=O)(=O)c2cn(C)c(=O)n(C)c2=O)cc1OC | – | inactive: 15.1%
Cc1ccccc1OCCN1CCCC1 | active: 50.1 µM | –
COc1ccccc1C1CCN(Cc2c(C)[nH]c3ccccc23)CC1 | inconclusive: 56.2 µM [inhibitor, partial curve] | –
COc1ccc(C)cc1NCc1cccc(OC)c1OC | active: 44.7 µM | –
CC(C)(C)c1ccc(C2C3=C(CCCC3=O)NC3=C2C(=O)c2ccccc23)cc1 (stereo unspecified) | inconclusive: 28.2 µM [inhibitor, single point] | –
COc1cc(CCC(=O)Nc2nnc(-c3cccnc3)s2)cc(OC)c1OC | – | inactive: -5.33%
Cc1oc(-c2nc3ccccc3n2C)cc1C(=O)c1ccccc1 | – | inactive: -36.1%
CC(C)c1ccc(CN2CCN(S(=O)(=O)c3ccc(Cl)s3)CC2)cc1 | – | inactive: 2.79%
O=S(=O)(NC1CCN(S(=O)(=O)c2ccc3c(c2)OCCO3)C1)c1c(F)cccc1F (stereo unspecified) | – | inactive: -5.52%
C(=N/Nc1nc(-c2ccccc2)cc(-c2ccccc2)n1)/c1cccnc1 | – | inactive: -28.7%
CC(C)n1c(O)c(N=Nc2ccc(Cl)nn2)c2ccccc21 | inconclusive: 56.2 µM [inhibitor, partial curve, poor fit] | –
COc1cc(C(=O)NC(=S)Nc2ccccc2N2CCOCC2)cc(OC)c1OC | active: 39.8 µM | –
CCOc1ccc(OCCOCCn2ccnc2)cc1 | active: 79.4 µM | –
O=C(O)c1sccc1S(=O)(=O)c1ccccc1 | inconclusive: 89.1 µM [inhibitor, single point] | –
O=C(c1ccc(=O)oc1)N1CCOCC1 | active: 50.1 µM | –
COc1ccc(NC(=O)CSc2nccn2-c2cccc(OC)c2)cc1 | inconclusive: 50.1 µM [inhibitor, partial curve] | –
CC(=O)c1c(C)[nH]c(C(=O)Nc2cccc(S(=O)(=O)N(C)c3ccccc3)c2)c1C | inconclusive: 35.5 µM [inhibitor, full curve] | –
COc1ccccc1/C=C(/NC(=O)c1ccccc1)C(=O)NCCCn1ccnc1 | – | inactive: -32.3%
COCCOC(=O)c1c(-c2ccccc2)c(-c2ccccc2)nn(C)c1=O | – | inactive: -0.683%
COc1ccc(NCCc2ccccn2)cc1 | active: 56.2 µM | –
Cn1c(N)c(C(=O)CSc2nnc(NC3CCCCC3)s2)c(=O)n(C)c1=O | – | inactive: 1.31%
COc1ccccc1-n1c(SCC(=O)NCc2ccc3c(c2)OCO3)nc2cc([N+](=O)[O-])ccc21 | – | inactive: -36.9%
CN(Cc1ccccc1)S(=O)(=O)c1ccc(C(=O)Nc2nnc(C3CC3)o2)cc1 | inconclusive: 89.1 µM [inhibitor, single point] | –
COc1cccc(NC(=O)CN(C)C(C)C(=O)NC(=O)NC2CCCCC2)c1 (stereo unspecified) | – | inactive: 3.82%
